# From patent publication US20250326843A1 (published 2025)
# T1: cynomolgus monkey 4-1BB (cynomolgus monkey)
# T1 chain: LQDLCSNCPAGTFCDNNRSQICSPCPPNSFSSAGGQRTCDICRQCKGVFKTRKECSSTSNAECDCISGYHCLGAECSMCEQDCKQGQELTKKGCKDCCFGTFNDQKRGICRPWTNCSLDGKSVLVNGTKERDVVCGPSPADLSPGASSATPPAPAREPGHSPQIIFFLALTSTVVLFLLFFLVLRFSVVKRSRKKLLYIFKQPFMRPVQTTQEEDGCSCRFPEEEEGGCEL
# B1: B7-H4×4-1BB bispecific antibody PR004281 (bispecific antibody)
# light: EIVMTQSPATLSVSPGERATLSCRASQSISSNLGWYQQKPGQAPRLLIYGASTRATGIPARFSGSGSGTEFTLTISSLQSEDFAVYYCQQYQSWPPLTFGGGTKVEIKRTVAAPSVFIFPPSDEQLKSGTASVVCLLNNFYPREAKVQWKVDNALQSGNSQESVTEQDSKDSTYSLSSTLTLSKADYEKHKVYACEVTHQGLSSPVTKSFNRGEC
# heavy: QVQLVESGGGVVQPGRSLRLSCAASGFTFRSFGMHWVRQAPGKGLEWVAVISYDASNEYYADSVKGRFIISRDNSKDTLYLQMNSLRAGDTAVYYCAKGGGLRWYFAYWGQGTLVTVSSASTKGPSVFPLAPSSKSTSGGTAALGCLVKDYFPEPVTVSWNSGALTSGVHTFPAVLQSSGLYSLSSVVTVPSSSLGTQTYICNVNHKPSNTKVDKKV[human IgG1 Fc with changes not given here]EVQLLESGGGLVQPGGSLRLSCAASGFTFSNYAMSWFRQPPETGLKWVSSIDASGGDTYYADSVKGRFTISRDNSKNTLYLQMNSLRAEDTAVYYCAKEGSHGTDDSHYDVDVWGQGTTVTVSS
# B2: B7-H4×4-1BB bispecific antibody PR004282 (bispecific antibody)
# light: B1 light
# heavy: QVQLVESGGGVVQPGRSLRLSCAASGFTFRSFGMHWVRQAPGKGLEWVAVISYDASNEYYADSVKGRFIISRDNSKDTLYLQMNSLRAGDTAVYYCAKGGGLRWYFAYWGQGTLVTVSSASTKGPSVFPLAPSSKSTSGGTAALGCLVKDYFPEPVTVSWNSGALTSGVHTFPAVLQSSGLYSLSSVVTVPSSSLGTQTYICNVNHKPSNTKVDKKV[human IgG1 Fc with changes not given here]GGSGGSEVQLLESGGGLVQPGGSLRLSCAASGFTFSNYAMSWFRQPPETGLKWVSSIDASGGDTYYADSVKGRFTISRDNSKNTLYLQMNSLRAEDTAVYYCAKEGSHGTDDSHYDVDVWGQGTTVTVSS
# Target: T1, cynomolgus monkey 4-1BB
# Assay: flow cytometry
row,Binder,EC50 [nM]
1,B1,2.63
2,B2,2.85
